# Several values for one entry are separate records, joined by “and”; a condition that tells them apart may be missing. Equal values may be shown once. The whole screen tested about 290,000 compounds, of which about 2,100 (0.72%) were called active. Inconclusive results, whose numbers are uncertain, are shown with a selection of clear calls. The call rests on the fitted dose curve; in most records, active means well fitted inhibition curve with a large enough effect; inconclusive means small, poorly fitted or top-dose-only effect, or effect the other way; inactive means flat fitted curve, though single readings scatter. A potency beside an inconclusive call is a rough fit, not a confirmed value.
# Biological target: Fructose-bisphosphate aldolase (Giardia intestinalis (strain ATCC 50803 / WB clone C6)) (UniProt A8B2U2)
# Assay: qHTS Assay for Inhibitors of Fructose-1,6-bisphosphate Aldolase from Giardia Lamblia; further: nearly all actives have a fitted effect of over 55% in size
# Settings: purified Giardia FBPA; activity, negative = inhibition: at 59.6 µM (top of the series) unless noted
# Procedure, shortened: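 Giardia FBPA (40 nM reagent) was preincubated 10 min at RT with compound (up to 57.5 uM final), then substrate plus GAPDH/TPI/NAD/arsenate coupling system with diaphorase/resazurin was added; resorufin fluorescence (525/598 nm) was read after 20 min.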
# On the % scale 0 is the no-effect control and ±100 the full control effect; potency means the concentration at half of the fitted maximal effect; tags describe the fitted curve by direction and shape.
# Sequence of UniProt A8B2U2 (A8B2U2 whole entry, looked up): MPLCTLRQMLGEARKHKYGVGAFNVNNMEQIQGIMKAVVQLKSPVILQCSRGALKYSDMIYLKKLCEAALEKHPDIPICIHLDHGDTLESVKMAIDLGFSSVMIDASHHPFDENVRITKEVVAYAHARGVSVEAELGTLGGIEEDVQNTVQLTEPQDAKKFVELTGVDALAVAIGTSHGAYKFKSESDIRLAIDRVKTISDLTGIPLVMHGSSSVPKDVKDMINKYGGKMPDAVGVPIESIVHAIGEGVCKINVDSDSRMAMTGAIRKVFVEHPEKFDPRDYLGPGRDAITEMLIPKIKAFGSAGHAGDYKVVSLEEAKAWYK
Compound,Potency,"activity, negative = inhibition"
O=C(O)c1cc(O)c(O)c(O)c1,active: 3.54 µM,
COc1ccc2nc(C)cc(Nc3cccc(C(=O)O)c3)c2c1,"inconclusive: 11.2 µM [inhibitor, partial curve]",
CCN(CC)CC(=O)NN(Cc1ccccc1)c1ccccc1,"inconclusive: 14.1 µM [inhibitor, partial curve]",
CCOC(=O)C1=C(CSc2nc3c(cc2C#N)CN(C)CC3)OC(N)=C(C#N)C1c1ccc(F)cc1 (stereo not drawn),"inconclusive: 11.2 µM [inhibitor, partial curve]",
O=C(O)c1cccc(COc2ccc3c(c2)CCC3)c1,"inconclusive: 12.6 µM [activator, partial curve]",
CC1=C/C(=N\OS(=O)(=O)c2ccccc2)C(C(C)C)=CC1=O,active: 11.2 µM,
CCn1c(SCc2cccc(C(F)(F)F)c2)nnc1-c1ccco1,,inactive: 5.73%
O=C1S/C(=C\c2ccc(N3CCOCC3)o2)C(=O)N1Cc1ccc(F)cc1,"inconclusive: 5.61 µM [inhibitor, full curve, poor fit]",
O=C1C2CCCN2C(c2ccccc2)N1c1ccc(Cl)cc1 (stereo not drawn),,inactive: 2.4%
CC1(C)CC(=O)c2cc(NC(=O)c3ccc(F)cc3)c(=O)oc2C1,,inactive: 3.04%
CCOC(=O)c1sc(N)nc1-c1ccccc1,,inactive: -3.79%
O=C(O)c1ccc(CSCc2ccccc2F)o1,"inconclusive: 17.7 µM [activator, single point]",
CCCCN(C)C(=O)C1CCN(Cc2cccnc2)CC1,"inconclusive: 15.8 µM [inhibitor, partial curve]",
Cc1ccc(C(NC(=O)C(C)C)c2cc([N+](=O)[O-])c3cccnc3c2O)cc1 (stereo not drawn),"inconclusive: 6.29 µM [inhibitor, single point]",
Cc1ccc(S(=O)(=O)N2CCC(=O)N(C(COCc3ccccc3)Cc3ccccc3)CC2)cc1 (stereo not drawn),,inactive: -4.33%
Cc1cccc(OCc2nnc(SCC(=O)O)n2Cc2ccccc2)c1,"inconclusive: 17.7 µM [activator, single point]",
CC(=O)NCCc1ccc(O)c(O)c1,"inconclusive: 9.98 µM [inhibitor, partial curve]",
COc1cc(/C=C2\SC(=S)N(NC(=O)c3ccncc3)C2=O)ccc1O,"inconclusive: 15.8 µM [inhibitor, partial curve]",
O=c1c(CO)cc(CO)cc(CO)c1O,"inconclusive: 1.26 µM [inhibitor, full curve]",
O=C(N/N=C/C=C/c1ccco1)c1ccncc1,"inconclusive: 17.7 µM [inhibitor, single point]",
Cc1cc(C)n(C(=O)Cn2nc(C(F)F)cc2C)n1,,inactive: 1.11%
CN1C(=O)c2cccc3c(S(=O)(=O)NCc4ccco4)ccc1c23,"inconclusive: 5.61 µM [inhibitor, full curve]",
Cc1cc(=O)n(CCO)c(O)c1C#N,"inconclusive: 11.2 µM [inhibitor, partial curve]",
O=C(NC(=S)Nc1cccnc1)c1cccc(Br)c1,"inconclusive: 12.6 µM [inhibitor, partial curve]",
CCOC(=O)COc1ccc(C2NC(C(=O)O)CS2)cc1 (stereo not drawn),"inconclusive: 19.9 µM [inhibitor, partial curve]",

Compound,Potency,"activity, negative = inhibition"
COc1ccc(C(=O)N2CCC(N3CCN(c4ccccc4)CC3)CC2)cc1,"inconclusive: 17.7 µM [inhibitor, single point]",
CCC(C)N1CCN(C(=O)c2cc(OC)cc(OC)c2)CC1 (stereo not drawn),"inconclusive: 20 µM [inhibitor, partial curve]",
COc1ccc2nc3sc(C(=O)NCCCN4CCc5ccccc5C4)cc3cc2c1,,inactive: -25%
CCOC(=O)N1CCC(NC(=O)CS(=O)(=O)Cc2nc(-c3cccc(Cl)c3)oc2C)CC1,,inactive: 4.99%
C[C@H](NC(=O)c1ccccc1)C(=O)Nc1nc(-c2ccccn2)cs1,active: 5.61 µM,
Cn1c(C(=O)c2ccccc2[N+](=O)[O-])nc2ccccc21,"inconclusive: 17.7 µM [inhibitor, single point]",
O=C1CC(N(CCc2ccccc2)C(=S)Nc2ccccc2)C(=O)N1c1ccc(Br)cc1 (stereo not drawn),,inactive: -4.68%
COCCn1c(SCc2cnc(-c3ccccc3)s2)nnc1-c1ccncc1,,inactive: 1.87%
COc1ccccc1C1NC=C([N+](=O)[O-])C=C1[N+](=O)[O-] (stereo not drawn),"inconclusive: 19.9 µM [inhibitor, partial curve]",
CNC(=O)N(O)C1N(/N=C/c2ccccc2OC)C(=S)SC1(C)C (stereo not drawn),"inconclusive: 28.2 µM [inhibitor, single point]",
Cc1cccc(OCC(=O)N2CCN(Cc3ccncc3)CC2)c1,"inconclusive: 15.8 µM [inhibitor, partial curve]",
CC#CC(C)C(OCOC)C(CC(C)Cc1cc(Br)cc(OCc2ccccc2)c1OC)OC (stereo not drawn),,inactive: 0.83% [at 12.9 µM]
CCOc1ccc(S(=O)(=O)NCc2ccccc2Cl)cc1C(N)=O,"inconclusive: 15.8 µM [inhibitor, partial curve]",
CCOC(=O)C1CCCCN1Cc1cccc(OCc2ccccc2)c1 (stereo not drawn),"inconclusive: 25.1 µM [inhibitor, partial curve]",
O=C(CSc1ccc(-c2ccco2)nn1)N1CCCC1,,inactive: -14.3%
COc1cc(N2CCCC2)c(OC)cc1C=O,"inconclusive: 19.9 µM [inhibitor, single point]",
c1ccc2sc(-c3ccc4c(c3)OCO4)nc2c1,,inactive: -1.13%
CN1CCN(CC(O)Cn2c3ccccc3c3ccccc32)CC1 (stereo not drawn),"inconclusive: 11.2 µM [inhibitor, partial curve]",
COc1cc(O)c(C(CCN2CCN(c3ccccc3)CC2)c2ccc(N(C)C)cc2)c(OC)c1 (stereo not drawn),inactive,
N#C/C(=C\c1cc2ccccc2nc1N1CCOCC1)C(=O)Nc1ccc(N2CCOCC2)cc1,,inactive: 0.604%
O=C(O)c1ccc(/C=N/Nc2ccc(Cl)nn2)cc1,active: 25.1 µM,
O=S(=O)(Nc1ncccn1)c1ccc(Cl)cc1,"inconclusive: 12.6 µM [inhibitor, partial curve]",
CN1CCc2ccc3c4c2[C@]1(C)Cc1cccc(c1-4)OCO3,"inconclusive: 15.8 µM [inhibitor, partial curve]",
O=C(NNC(=S)Nc1ccc(Cl)cc1Cl)c1ccc(N2CCOCC2)c([N+](=O)[O-])c1,"inconclusive: 14.1 µM [activator, partial curve]",
O=C(CSc1cn(CCNC(=O)c2ccc3ccccc3c2)c2ccccc12)NCc1ccco1,,inactive: 3.21%

Compound,Potency,"activity, negative = inhibition"
O=C(O)c1ccc(/C=N/Nc2ccc(C(F)(F)F)cn2)cc1,,inactive: -6.25%
COc1ccc(CCN(C)CC(=O)Nc2c(C)cc(C)cc2C)cc1OC,"inconclusive: 25.1 µM [inhibitor, partial curve]",
C=CCNc1nc(N)c(C(=O)Nc2cc(C)on2)s1,"inconclusive: 15.8 µM [inhibitor, single point]",
COc1ccc(CNC(=O)C2CCCN2)cc1OC (stereo not drawn),"inconclusive: 19.9 µM [inhibitor, partial curve]",
OCc1ccc(O)c2ncccc12,"inconclusive: 5 µM [inhibitor, single point]",
Cc1[nH][nH]c(=O)c1C(c1c(C)[nH][nH]c1=O)c1cn(Cc2cccc3ccccc23)c2ccccc12,"inconclusive: 5.61 µM [inhibitor, partial curve]",
O=S(=O)(NCc1ccco1)c1ccccc1Br,"inconclusive: 31.5 µM [inhibitor, single point]",
CN(C1=C(N2CCOCC2)C(=O)c2ccccc2C1=O)c1ccccc1,"inconclusive: 5.61 µM [inhibitor, partial curve]",
CC1=CC(C)(C)N(C(=O)CSc2ncn[nH]2)c2ccccc21,"inconclusive: 22.3 µM [inhibitor, single point]",
COc1ccc(C)cc1Nc1nc(C)nc2sc(C)cc12,,inactive: 5.17%
CCNc1ccccc1CP(=O)(c1ccccc1)c1ccccc1O (stereo not drawn),active: 1.78 µM,
O=C(O)COc1ccccc1/C=N/NC(=O)CN1CCN(S(=O)(=O)c2ccc(Br)cc2)CC1,,inactive: -2.73%
CCc1nnc(NC(=O)CSc2nc3c(cc2C#N)CCCC3)s1,,inactive: -0.0083%
CN(C)CCNCCCOc1ccccc1-c1ccccc1,"inconclusive: 22.3 µM [inhibitor, partial curve]",
Cc1cc(C)n(CCc2nc(-c3ccc(C)o3)cs2)n1,"inconclusive: 15.8 µM [inhibitor, single point]",
COc1ccc(C2C(C#N)=C(N)Oc3cc(C)n(Cc4ccco4)c(=O)c32)cc1 (stereo not drawn),"inconclusive: 11.2 µM [inhibitor, partial curve]",
CCOC(=O)CN1C(=O)S/C(=C/c2cc(C)n(-c3ccccn3)c2C)C1=O,"inconclusive: 12.6 µM [inhibitor, partial curve]",
NNC(=O)CN1C(c2ccccc2Br)=Nc2ccc(Br)cc2C1c1ccccc1 (stereo not drawn),"inconclusive: 22.3 µM [inhibitor, single point]",
COC(=O)CCC(=O)OC1(C)C(=O)C=C2C=C(C3CC3)N(Cc3ccc(OC)cc3)C=C2C1=O (stereo not drawn),"inconclusive: 281 nM [inhibitor, full curve] and inconclusive: 316 nM [inhibitor, full curve]",
COc1cc(C2C(C#N)=C(N)Oc3n[nH]c(-c4ccccn4)c32)cc(OC)c1OC (stereo not drawn),"inconclusive: 19.9 µM [inhibitor, single point]",
Cc1[nH]c2ccccc2c1[C@H]1[C@@H](CC#N)C1(C)C,"inconclusive: 20 µM [inhibitor, partial curve]",
O=C(CCN1CCc2ccccc2C1)Nc1ccccc1,active: 15.8 µM,
O=c1ccc(-c2n[nH]c(=S)n2-c2ccc(F)c(Cl)c2)n[nH]1,"inconclusive: 15.8 µM [inhibitor, single point]",

# From PubChem BioAssay AID2451 (National Center for Advancing Translational Sciences (NCATS), 2010)
